The supplement of paper PMC10126150
Sequences with one replicate were seen in a single cluster, so their values are uncertain.

Test system: ATP
Assay: switch fluorescence ratio, 500 uM ATP over buffer (Cy3 cluster intensity, sum of 5 cycles each) (fold (ratio)); higher = stronger signal-on switching upon ATP binding; sequences stand for … in TCGTCGGCAGCGTCAGATGTGTATAAGAGACAGTTTTTTTTTTTTTTTTTTTTTTTTT…TC
Conditions: aptamer strand: ATP DNA aptamer (quencher-CACCTGGGGGAGTATTGCGGAGGAAGG + anchor), 100 nM annealed; ATP concentration: 500 uM; one replicate
Method in brief: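 Switching-strand clusters labelled with Cy3 on a modified Illumina MiSeq flow-cell were annealed to 100 nM quencher-labelled ATP aptamer, imaged in selection buffer, and re-imaged after 15 min with 500 uM ATP at 22 °C. This was done over five cycles with NaOH stripping and re-annealing in between. The fluorescence ratio is summed target-cycle over summed buffer-cycle Cy3 intensity per cluster, averaged per switch-domain sequence, excluding clusters outside 100-1000 RFU.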
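Further: ATP exposure 15 min at 22 °C before imaging.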

Sequence	switch fluorescence ratio
GCGTTTGAGC	0.98
TTCGATTCA	0.99
CTGAAGTGAT	1.53
CTTACTGGG	0.986
AATTTACGGT	1.06
ATCGTATAGC	1.02
GTATACGTCG	0.98
TGGCTTCTGA	1.02
TCTTTTTGCG	1.03
ATGAGAGTCT	1
AGTAGTAGAC	0.96
CGATATTGGG	0.99
CTATTGAGGG	1.01
TCGGACGGCT	0.936
GGTCTTCAGT	1.01
CGGTTACTAC	1.08
GATAAAATTA	1.04
CCCAGCTTCA	1.14
TATGCGGGTA	1.03
AGAGTCGGGG	0.986
CAATGCTGTT	1.04
CTATGCGCAT	1.09
CACAAGTTAA	0.971
GAGTTCAGCA	1.03
CATTTAAGCT	0.998
AACTGACTT	1.11

Sequence	switch fluorescence ratio
TAATTTCCCC	1.06
GCCTAAGAAT	0.938
CAGGTTTCCC	1.03
CCGTAGGCAT	2.45
TTGTTGTTGC	1.04
CTCGCGAAAG	1.23
TGCCAACGTT	0.997
CATTCAAGTC	0.974
TAATGGCAGA	0.973
CCGTTCTGGT	0.954
TAGGATTTGC	0.987
GCAAGCCGGT	1.05
TGGGTTCCAT	1.01
CAAGTTTTGA	0.984
CGTTTTGCGT	0.983
GCCGATCCGG	1.04
ACCCTTAAAT	1.03
GTGCACCTTC	1.07
AATCGCTCCG	1.1
CTGTGCGTAA	1.43
GGGGTGGTGC	1.03
TTTAGCGACA	0.998
TCGTCAGTTG	1.03
AAGACACAAG	1.01
AGGAAGTGTA	1.01
GTAAGTAGAA	1

Sequence	switch fluorescence ratio
GCGGGCGAAC	1
CGGTGCTGAC	1.11
ATTACATCTT	1.01
ACAGCGGACA	1.07
GCATACATCC	1.47
AAGATGGTGC	1.1
AGTTGCGGCC	0.997
GGGATTCCAG	0.999
AGTCTTTCTC	1.02
GAATCTGCGG	1.01
GTCATAGACA	1.02
GCTATAATCT	0.972
CTGATATTCG	1.02
TATTGCCCCC	1.05
TATACACCCG	1.12
TAGGGCTATG	1.03
GTAATAACAT	1.02
CATCTTACAC	1.01
GCATTGTTGT	0.957
CGCACGGCCT	1.01
CATCTTGTTC	1
GAAGAAACTA	0.978
CGGCGGATGA	1.04
ATGTCCTACC	1.32
AACATCATTA	0.998
CAGTTGTACG	0.976

Sequence	switch fluorescence ratio
AATCCTTTGT	1.01
ATCAGCACCC	1.11
TCCCTCAAAA	1.51
CCAGGGGTG	1.2
TACAAGGGA	0.971
GGCCACATAA	1.01
GATGGCCGCT	0.993
CAGTTTTGT	0.983
AATCGGAGGG	0.98
TGAGTGCGCG	1.02
GGAAGCACTG	1.04
GAGGGTTCTC	0.984
CGGATCTATT	1.01
CGGTCGCGCA	0.983
TAACTGGAAG	1.03
TGTGCGTTCA	0.976
GCGTATGAG	0.95
CGGAAGGTAA	1.28
GCTAATCACT	0.996
AAAGCAGCAT	1.02
AACCCCGAGC	1.4
GAGCATTTGG	0.954
TTTTCGGGG	0.978
AGCACTCTTC	1.04
TCATTTTTTC	1.02
CCCTTAGGTA	1.01

Sequence	switch fluorescence ratio
TGCGTTGGG	1.03
GCGGGTTGAA	1.05
CGCCGGGACG	1.05
CGCACTGCCT	1.11
TAGCACAT	1.06
GATGCAGAGC	1.02
CCTCATTCAA	4.73
TGTGACTGTT	1.03
CAGAATTCG	1.02
CTTACGCCGT	1.01
CGGGGCGTCG	0.98
TGGCACGTCC	1.02
GGTCTCAAAG	1.02
GTGCCTATGC	1.21
TGGAGGAGTA	0.978
GGACTC	1.06
ATATGGGTGA	1.03
GACGGGTGGG	1.06
CATTGATTGT	0.976
TACTCGTGGG	0.958
TATCAGTCTA	0.978
TGGTAGGGCT	1.02
ACCGTTGCCA	0.998
AGGGCCTTGG	0.986
AACGTCAATT	1.21
TTCTGAGTTT	0.989

Sequence	switch fluorescence ratio
CTGCACACTT	1.13
ATATTACATG	1.02
ATTTTTCCAT	1.04
TTGCCCAGG	2.69
GTGGATACTT	0.992
CGTAACCTAT	0.982
GGACGGGTAG	1.04
AGGTAGAGTT	0.98
CAGGGGATCA	0.945
CTGTAGCCG	0.826
TGATGGCTGA	1.01
GCAAATGTGG	1.01
ATCCCAGAAG	1.04
ACAGATAGGG	1.04
ATTATAAGAT	1.06
GATGATTCCT	1.07
ACAATCGGTG	1.05
ATAATGTGCG	0.998
GTTTTAGCGA	1.07
TCGCGGGGGT	1.04
ACAATCATAC	1.11
TGGATAGCG	1.04
TCTTGTATA	0.977
ACGGCATGTT	1.05
GATCGTGACA	0.972
ATCAGGGTTC	0.97

Sequence	switch fluorescence ratio
TACAGTAAAC	1.08
AGAAATTCCT	1.09
CTACGAAGCC	1.47
TAGGGACGGT	1.1
TTAGCTACTT	1.05
CGATCCAAAC	1.78
TACCGTCGGA	1.01
ATGAACGCGC	1.11
CACAATGGCT	0.98
ACGACGTTGC	1.77
ATATGTGTCT	0.956
GCGGGCTGAT	1.02
GTAACCTGCT	1.01
ATTAGGCAAA	1.02
CCAAGTAGTT	0.984
CTGGCAAAAT	1.06
ACATTGACAG	1.1
CTAATAGGTA	1.02
GGATTCAGAT	0.973
TCTAGTCCAT	0.965
TGGTTGGTCT	0.99
ACGCTCGTAG	1.06
GATAATTGTT	0.964
ATTCGTTGAG	0.977
CAGAGTTTCG	1.02
CCCCTATGCT	1.16

Sequence	switch fluorescence ratio
CAGGGTCTGT	1.03
TCGTGAGGAG	0.963
GGGTGATAGG	1.03
AAACGTAAA	1.09
CCGTCTGGTT	1.12
GGCTTTGGGC	1
GGCTGCCAAT	1.05
AATTGTCTAC	1.01
ACGGCTTGGT	0.973
TTATGACCGG	0.939
CATTCGTCTA	1.09
TCTCTAAAG	1
ACTATTGCTT	1.07
TGGTCGTTCG	0.976
TAATGTATCG	1.05
AACGCAGTAA	1.45
AATCTGTCCG	1.01
GCTCTAGGTT	1
AGCGTCCCGG	1.03
